Drawing on article PMC12820563, “FoxP3 forms a head-to-head dimer in vivo and stabilizes its multimerization on adjacent microsatellites”, this text covers binding signal for 18 sequences.

This is one part of the list.

The assay addresses T1, MBP-FoxP1dN (Mus musculus, UniProt P58462 326-579).
T1 sequence: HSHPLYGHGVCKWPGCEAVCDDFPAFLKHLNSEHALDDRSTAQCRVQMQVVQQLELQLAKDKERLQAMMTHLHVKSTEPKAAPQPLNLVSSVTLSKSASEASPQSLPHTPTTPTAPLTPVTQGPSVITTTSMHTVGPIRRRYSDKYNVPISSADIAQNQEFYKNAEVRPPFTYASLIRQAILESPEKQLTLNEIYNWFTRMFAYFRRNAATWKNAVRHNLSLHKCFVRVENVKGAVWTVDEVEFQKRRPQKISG
Put plainly: PD-seq (MBP pull-down with sequencing); 20 mM Tris-HCl pH 7.5, 100 mM NaCl, 1.5 mM MgCl2, 0.4 uM protein, 0.1 uM dsDNA library, 30 min, room temperature, amylose pull-down; high values mean tight binding. The following applies: protein: recombinant; tags: His6-MBP; chain copies: 2; dsDNA, one strand shown. The method, boiled down: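 E. coli-expressed mouse FoxP3 or FoxP1 fragment, N-terminus removed and tagged with His6-MBP, was used at 0.4 µM against 0.1 µM of a Klenow-filled degenerate double-stranded DNA library. After 30 min at room temperature in Tris pH 7.5 buffer with NaCl and MgCl2, complexes were pulled down on amylose resin and washed three times. Binding is pull-down over input reads-per-million enrichment from pooled replicates of the proteinase K-released, PCR-barcoded, Illumina-sequenced DNA.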
“GATGATTGTTCTCCCAGCTGATGAATTCATAGCATCGAGTAAACAAATTTTCCTAATCTTTCTGTTCAAGCGCCATCTAC”: the binding signal was 1.21 RPM ratio (pull-down/input).

“GATGATTGTTCTCCCAGCTGATGAATTTCCTGTGTCGAGTAAACAAATTTTCCTAATCTTTCTGTTCAAGCGCCATCTAC”: the binding signal was 0.896 RPM ratio (pull-down/input).

On to “GATGATTGTTCTCCCAGCTGATGAATTCACTATATCGAGTAAACAAATTTTCCTAATCTTTCTGTTCAAGCGCCATCTAC”, for which the binding signal was 0.909 RPM ratio (pull-down/input).

“GATGATTGTTCTCCCAGCTGATGAATTCACACGATCGAGTAAACAAATTTTCCTAATCTTTCTGTTCAAGCGCCATCTAC”: the binding signal is 0.839 RPM ratio (pull-down/input).

With “GATGATTGTTCTCCCAGCTGATGAATTCTGGTCATCGAGTAAACAAATTTTCCTAATCTTTCTGTTCAAGCGCCATCTAC”, the binding signal was 0.82 RPM ratio (pull-down/input).

In the case of “GATGATTGTTCTCCCAGCTGATGAATTTGTCTAGTCGAGTAAACAAATTTTCCTAATCTTTCTGTTCAAGCGCCATCTAC”, the binding signal is 0.997 RPM ratio (pull-down/input).

Take “GATGATTGTTCTCCCAGCTGATGAATTTCCGTGGTCGAGTAAACAAATTTTCCTAATCTTTCTGTTCAAGCGCCATCTAC”: the binding signal is 0.762 RPM ratio (pull-down/input).

“GATGATTGTTCTCCCAGCTGATGAATTTGATTCATCGAGTAAACAAATTTTCCTAATCTTTCTGTTCAAGCGCCATCTAC”: the binding signal was 0.937 RPM ratio (pull-down/input).

As for “GATGATTGTTCTCCCAGCTGATGAATTGGCGTTCTCGAGTAAACAAATTTTCCTAATCTTTCTGTTCAAGCGCCATCTAC”, the binding signal was 0.872 RPM ratio (pull-down/input).

For “GATGATTGTTCTCCCAGCTGATGAATTGATGTGTTCGAGTAAACAAATTTTCCTAATCTTTCTGTTCAAGCGCCATCTAC”, the binding signal is 1.5 RPM ratio (pull-down/input).

Take “GATGATTGTTCTCCCAGCTGATGAATTTGACGGCTCGAGTAAACAAATTTTCCTAATCTTTCTGTTCAAGCGCCATCTAC”: the binding signal was 0.753 RPM ratio (pull-down/input).

As to “GATGATTGTTCTCCCAGCTGATGAATTGCATAGCTCGAGTAAACAAATTTTCCTAATCTTTCTGTTCAAGCGCCATCTAC”, the binding signal was 1.02 RPM ratio (pull-down/input).

For “GATGATTGTTCTCCCAGCTGATGAATTCGCCAATTCGAGTAAACAAATTTTCCTAATCTTTCTGTTCAAGCGCCATCTAC”, the binding signal is 0.869 RPM ratio (pull-down/input).

As to “GATGATTGTTCTCCCAGCTGATGAATTACATCTGTCGAGTAAACAAATTTTCCTAATCTTTCTGTTCAAGCGCCATCTAC”, the binding signal is 1.04 RPM ratio (pull-down/input).

For the sequence “GATGATTGTTCTCCCAGCTGATGAATTGTTTGCCTCGAGTAAACAAATTTTCCTAATCTTTCTGTTCAAGCGCCATCTAC”, the binding signal was 1.96 RPM ratio (pull-down/input).

Consider “GATGATTGTTCTCCCAGCTGATGAATTACGCGTCTCGAGTAAACAAATTTTCCTAATCTTTCTGTTCAAGCGCCATCTAC”, for which the binding signal was 1 RPM ratio (pull-down/input).

On to “GATGATTGTTCTCCCAGCTGATGAATTTCCATGGTCGAGTAAACAAATTTTCCTAATCTTTCTGTTCAAGCGCCATCTAC”, for which the binding signal was 0.791 RPM ratio (pull-down/input).

On to “GATGATTGTTCTCCCAGCTGATGAATTTCGCAGCTCGAGTAAACAAATTTTCCTAATCTTTCTGTTCAAGCGCCATCTAC”, for which the binding signal was 0.828 RPM ratio (pull-down/input).
